According to the supplement of paper PMC4967469:

How the values were obtained:
Assay in all cases: Viability of human cancer cell lines after 72 h of drug (GDSC screen)
EHT 1864 = compound: O=c1cc(CN2CCOCC2)occ1OCCCCCSc1ccnc2cc(C(F)(F)F)ccc12 [EHT 1864]; conditions: top dose 10 µM; top dose inferred
Method: (§1)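 Human cancer cell lines in 384-well plates, medium with 10% serum, drug for 72 h over a 256-fold dose range (nine 2-fold or five 4-fold steps up to the top dose). Adherent lines were fixed and stained with the nucleic acid dye Syto60, suspension lines read with resazurin; signal relative to control wells, capped at 0 and 100%. One two-parameter sigmoid per drug and line, fitted in a mixed model over all curves with the slope shared within a line.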

QL-XI-92 = compound: C=CC(=O)Nc1cc(NC(=O)c2ccc(C)c(NC(=O)c3ccno3)c2)cc(C(F)(F)F)c1 [QL-XI-92]; conditions: top dose 10.24 µM; top dose inferred
Method: as §1

AG-014699 = compound: CNCc1ccc(-c2[nH]c3cc(F)cc4c3c2CCNC4=O)cc1 [AG-014699]; conditions: top dose 5 µM; top dose inferred
Method: as §1

XL-184 = compound: COc1cc2nccc(Oc3ccc(NC(=O)C4(C(=O)Nc5ccc(F)cc5)CC4)cc3)c2cc1OC [XL-184]; conditions: top dose 5.12 µM; top dose inferred
Method: as §1

WHI-P97 = compound: COc1cc2ncnc(Nc3cc(Br)c(O)c(Br)c3)c2cc1OC [WHI-P97]; conditions: top dose 10.24 µM; top dose inferred
Method: as §1

S-Trityl-L-cysteine = compound: N[C@@H](CSC(c1ccccc1)(c1ccccc1)c1ccccc1)C(=O)O [S-Trityl-L-cysteine]; conditions: top dose 5.12 µM; top dose inferred
Method: as §1

Vinorelbine = compound: CCC1=C[C@@H]2CN(C1)Cc1c([nH]c3ccccc13)[C@@](C(=O)OC)(c1cc3c(cc1OC)N(C)[C@H]1[C@@](O)(C(=O)OC)[C@H](OC(C)=O)[C@]4(CC)C=CCN5CC[C@]31[C@@H]54)C2 [Vinorelbine]; conditions: top dose 0.064 µM; top dose inferred
Method: as §1

Phenformin = compound: N=C(N)NC(=N)NCCc1ccccc1 [Phenformin]; conditions: top dose 4000 µM; top dose inferred
Method: as §1

Gefitinib = compound: COc1cc2ncnc(Nc3ccc(F)c(Cl)c3)c2cc1OCCCN1CCOCC1 [Gefitinib]; conditions: top dose 0.5 µM
Method: as §1

NU-7441 = compound: O=c1cc(N2CCOCC2)oc2c(-c3cccc4c3sc3ccccc34)cccc12 [NU-7441]; conditions: top dose 2 µM; top dose inferred
Method: as §1

Cell Line	AUC (EHT 1864)	IC50 (EHT 1864) [µM]	AUC (QL-XI-92)	IC50 (QL-XI-92) [µM]	AUC (AG-014699)	IC50 (AG-014699) [µM]	AUC (XL-184)	IC50 (XL-184) [µM]	AUC (WHI-P97)	IC50 (WHI-P97) [µM]	AUC (S-Trityl-L-cysteine)	IC50 (S-Trityl-L-cysteine) [µM]	AUC (Vinorelbine)	IC50 (Vinorelbine) [µM]	AUC (Phenformin)	IC50 (Phenformin) [µM]	AUC (Gefitinib)	IC50 (Gefitinib) [µM]	AUC (NU-7441)	IC50 (NU-7441) [µM]
A253 (head and neck, adherent)	0.973	> 10	0.962	> 10.2	0.989	> 5	0.989	> 5.12	0.988	> 10.2	0.858	4.01	0.371	0.00178	0.857	3110	0.976	> 0.5	0.977	> 2
ALL-PO (lymphoblastic leukaemia, suspension)	0.711	2.56	0.857	9.12	0.875	> 5	0.31	0.0908	0.797	5.14	0.68	1.05	0.441	0.00272	0.188	27.2	0.912	> 0.5	0.859	1.81
AM-38 (glioma, semi-adherent)	0.892	> 10	0.885	> 10.2	0.966	> 5	0.872	5.07	0.944	> 10.2	0.988	> 5.12	0.811	0.0349	0.97	> 4000	0.962	> 0.5	0.958	> 2
ARH-77 (myeloma, suspension)	0.943	> 10	0.88	10	0.983	> 5	0.948	> 5.12	0.984	> 10.2	0.791	2.2	0.742	0.0191	0.777	1550	0.968	> 0.5	0.979	> 2
ATN-1 (T-cell lymphoblastic leukaemia, suspension)	0.988	> 10	0.96	> 10.2	0.972	> 5	0.903	> 5.12	0.978	> 10.2	0.621	0.674	0.414	0.00237	0.487	230	0.982	> 0.5	0.867	1.61
BB49-HNC (head and neck, adherent)	0.969	> 10	0.975	> 10.2	0.952	> 5	0.978	> 5.12	0.948	> 10.2	0.967	> 5.12	0.766	0.0335	0.913	> 4000	0.971	> 0.5	0.938	> 2
BE-13 (lymphoblastic leukaemia, suspension)	0.923	> 10	0.871	8.58	0.974	> 5	0.727	1.34	0.9	> 10.2	0.726	1.33	0.586	0.00677	0.543	325	0.889	> 0.5	0.921	> 2
Becker (glioma, adherent)	0.95	> 10	0.962	> 10.2	0.935	> 5	0.869	> 5.12	0.956	> 10.2	0.598		0.538	0.00515	0.763	1610	0.977	> 0.5	0.93	> 2
C2BBe1 (large intestine, adherent)	0.899	> 10	0.969	> 10.2	0.986	> 5	0.97	> 5.12	0.931	> 10.2	0.964	> 5.12	0.879	> 0.064	0.727	1220	0.945	> 0.5	0.982	> 2
CA46 (Burkitt lymphoma, suspension)	0.964	> 10	0.846	8.32	0.979	> 5	0.887	> 5.12	0.955	> 10.2	0.894	> 5.12	0.729	0.019	0.503	254	0.975	> 0.5	0.982	> 2
CGTH-W-1 (thyroid, adherent)	0.962	> 10	0.897	> 10.2	0.938	> 5	0.931	> 5.12	0.977	> 10.2	0.913	> 5.12	0.323	0.00129	0.959	> 4000	0.987	> 0.5	0.953	> 2
CHP-126 (neuroblastoma, suspension)	0.987	> 10	0.925	> 10.2	0.947	> 5	0.976	> 5.12	0.954	> 10.2	0.929	> 5.12	0.863	0.0575	0.975	> 4000	0.987	> 0.5	0.976	> 2
COLO-320-HSR (large intestine, suspension)	0.978	> 10	0.985	> 10.2	0.992	> 5	0.93	> 5.12	0.978	> 10.2	0.691	1.01	0.98	> 0.064	0.677	722	0.991	> 0.5	0.986	> 2
COLO-684 (endometrium, suspension)	0.955	> 10	0.892	> 10.2	0.966	> 5	0.949	> 5.12	0.974	> 10.2	0.798	2.8	0.684	0.0141	0.576	413	0.985	> 0.5	0.969	> 2
COLO-800 (melanoma, adherent)	0.904	> 10	0.982	> 10.2	0.627	0.69	0.958	> 5.12	0.983	> 10.2	0.96	> 5.12	0.612	0.00804	0.762	1390	0.982	> 0.5	0.986	> 2
COR-L95 (small cell lung carcinoma, adherent)	0.943	> 10	0.958	> 10.2	0.987	> 5	0.97	> 5.12	0.982	> 10.2	0.942	> 5.12	0.959	> 0.064	0.384	114	0.987	> 0.5	0.983	> 2
COR-L279 (small cell lung carcinoma, suspension)	0.952	> 10	0.985	> 10.2	0.99	> 5	0.885	4.56	0.94	> 10.2	0.824	2.62	0.746	0.0184	0.743	1130	0.985	> 0.5	0.991	> 2
CP66-MEL (melanoma, adherent)	0.986	> 10	0.976	> 10.2	0.985	> 5	0.982	> 5.12	0.964	> 10.2	0.765	2.13	0.834	0.05	0.492	238	0.986	> 0.5	0.978	> 2
CPC-N (small cell lung carcinoma, suspension)	0.922	> 10	0.952	> 10.2	0.98	> 5	0.934	> 5.12	0.977	> 10.2	0.845	4.22	0.92	> 0.064	0.572	400	0.982	> 0.5	0.947	> 2
CW-2 (large intestine, adherent)	0.898	> 10	0.967	> 10.2	0.983	> 5	0.972	> 5.12	0.986	> 10.2	0.989	> 5.12	0.988	> 0.064	0.293	61.8	0.971	> 0.5	0.964	> 2
D-247MG (glioma, adherent)	0.9	> 10	0.858	> 10.2	0.935	> 5	0.435	0.199	0.907	> 10.2	0.978	> 5.12	0.665	0.0137	0.381	104	0.97	> 0.5	0.975	> 2
D-263MG (glioma, adherent)	0.959	> 10	0.982	> 10.2	0.948	> 5	0.977	> 5.12	0.983	> 10.2	0.967	> 5.12	0.929	> 0.064	0.792	2240	0.972	> 0.5	0.898	> 2
D-283MED (medulloblastoma, adherent)	0.983	> 10	0.991	> 10.2	0.969	> 5	0.99	> 5.12	0.991	> 10.2	0.989	> 5.12	0.964	> 0.064	0.853	2690	0.976	> 0.5	0.924	> 2

A lower IC50 marks a more sensitive line; a fit beyond the top or the lowest dose is shown as a bound at that dose. AUC is the area under the same curve over the 256-fold range up to the top dose, as a fraction; values near 1 show little effect. For part of these data: Where the top dose is marked as inferred, it is not printed in the source and was worked back from the curve model.
